Results published in PMC4336329 (PLoS ONE, 2015).
The campaign covered roughly 310,000 compounds. About 2,200 (0.71%) showed an effect of 50% or more. Effects have a minus sign here. This is one part of the list.

Each compound was assayed against human ether-à-go-go-related gene (hERG) potassium channel (human, UniProt Q12809) (assay: primary screen, population patch clamp on CHO cells stably expressing hERG).
human ether-à-go-go-related gene (hERG) potassium channel, sequence (Q12809 whole entry, looked up): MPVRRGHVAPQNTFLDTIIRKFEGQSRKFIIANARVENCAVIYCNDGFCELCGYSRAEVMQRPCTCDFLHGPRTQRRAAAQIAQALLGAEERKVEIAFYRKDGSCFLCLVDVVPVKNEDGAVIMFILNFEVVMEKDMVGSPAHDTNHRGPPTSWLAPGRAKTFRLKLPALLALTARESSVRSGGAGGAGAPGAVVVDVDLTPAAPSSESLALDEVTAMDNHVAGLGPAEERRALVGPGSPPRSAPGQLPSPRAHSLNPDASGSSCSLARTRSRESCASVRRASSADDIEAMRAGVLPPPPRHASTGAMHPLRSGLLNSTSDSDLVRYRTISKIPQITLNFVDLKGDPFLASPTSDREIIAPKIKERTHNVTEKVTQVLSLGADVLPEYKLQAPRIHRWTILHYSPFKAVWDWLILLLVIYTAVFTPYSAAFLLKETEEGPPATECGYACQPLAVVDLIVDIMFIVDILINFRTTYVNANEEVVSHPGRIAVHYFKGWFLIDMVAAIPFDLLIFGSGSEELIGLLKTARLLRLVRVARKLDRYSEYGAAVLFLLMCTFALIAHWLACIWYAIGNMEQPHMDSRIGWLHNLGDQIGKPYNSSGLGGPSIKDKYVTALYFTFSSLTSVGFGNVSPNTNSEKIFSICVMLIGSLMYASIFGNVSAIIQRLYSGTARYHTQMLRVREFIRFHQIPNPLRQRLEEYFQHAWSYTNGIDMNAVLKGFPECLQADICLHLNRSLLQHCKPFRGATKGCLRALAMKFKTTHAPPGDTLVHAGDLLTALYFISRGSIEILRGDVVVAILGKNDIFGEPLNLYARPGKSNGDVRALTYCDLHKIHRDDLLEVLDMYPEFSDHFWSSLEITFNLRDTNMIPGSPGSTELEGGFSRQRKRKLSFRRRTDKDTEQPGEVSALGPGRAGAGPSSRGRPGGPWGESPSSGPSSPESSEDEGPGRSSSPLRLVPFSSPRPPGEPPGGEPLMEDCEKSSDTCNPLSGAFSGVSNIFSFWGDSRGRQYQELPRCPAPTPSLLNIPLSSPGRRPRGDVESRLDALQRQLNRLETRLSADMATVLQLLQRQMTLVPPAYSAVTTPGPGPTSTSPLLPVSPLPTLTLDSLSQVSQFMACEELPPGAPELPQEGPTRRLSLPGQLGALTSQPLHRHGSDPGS

SMILES | hERG current change (%, negative = inhibition) at 1uM [%]
CCCc1cc(C(=O)N2CCCC(C(=O)c3cccc4ccccc34)C2)n(C)n1 (stereo not shown) | 12.6
Cc1cc2[nH]c(=O)c(=O)[nH]c2cc1S(=O)(=O)N1CCN(c2cccc(C)c2C)CC1 | -2.64
CCCn1c(=O)[nH]c(=O)c2c1nc(-c1ccc(OC(F)(F)C(F)C(F)(F)F)cc1)n2CCOC (stereo not shown) | -2.67
CN(CCOc1ccc(Cl)cc1)C(=O)Cc1ccc(S(=O)(=O)N2CCOCC2)s1 | 2.85
CCOC(=O)CNC(=O)CSc1ncnc2c1cnn2Cc1ccccc1 | 2.68
Cc1nc(-c2ccc(NC(=O)c3ccccc3C)cc2)cs1 | 9.37
C/C(=N/NC(=O)c1cccs1)c1ccc(NC(=O)COc2ccc(Cl)cc2Cl)cc1 | 10.3
COc1ccc(COCC(O)CN2CCOCC2)cc1OC.Cl (stereo not shown) | 11.1
O=C1NC(c2ccncc2)C(C(=O)c2cccs2)C(O)(C(F)(F)F)N1 (stereo not shown) | 5.02
CCCCn1nc2cc(C(=O)NC[C@@H]3CCCO3)ccc2c1OCC | 11.4
CCOC(=O)CSc1ncnc2c1cnn2-c1ccc(C)cc1 | 2.31
O=C(Nc1ccccc1)C1=C[C@H](C2CC2)C[C@H](OCCCCO)O1 | 10.7
COc1ccc(C2C(C#N)=C(N)OC3=C2C(=O)CCC3)cc1OC (stereo not shown) | 14.1
COc1ccc(S(=O)(=O)NCC2CCCN(C(=O)CC3CCCC3)C2)cc1 (stereo not shown) | 6.77
CC(C)C(CCNC(=O)CN1C(=O)c2ccccc2C1=O)c1ccco1 (stereo not shown) | 5.86
CC[C@]12CCCN3CCc4c(n(c5ccccc45)C(=O)C1)C32 (stereo partly shown) | -50.5
O=C(CSc1ccc(-c2ccccc2)nn1)N1CCCc2ccccc21 | -2.12
CC(C)c1ccc(OC(=O)NCCO)cc1 | -4.31
CCn1ncc(C2=NOC(C(=O)NCc3ccc(OC)cc3)C2)c1C (stereo not shown) | 2.98
Cc1nn(C)c(=O)c(N)c1-c1cc(-c2ccc(Cl)c(Cl)c2)n[nH]1 | 12.9
CC(C)[C@H](NC(=O)c1ccccc1)C(=O)O | 8.29
CCC(=O)Nc1cccc(C2=NOC3(C2)C[C@H](C(N)=O)N(C(=O)Cc2ccc([N+](=O)[O-])cc2)C3)c1 (stereo partly shown) | 5.29

SMILES | hERG current change (%, negative = inhibition) at 1uM [%]
CCN(CC)CCCN1CC(=O)N2[C@@H](Cc3c([nH]c4ccccc34)C2(C)C)C1=O | 15
COc1cc(C2NC(=O)N(C)C3=C2C(=O)CCC3)cc(OC)c1OC (stereo not shown) | 13
Cc1ccc(-c2cccc(C3CC=CC4C3C(=O)N(Cc3ccccc3)C4c3cc(C)ccc3F)c2)cc1 (stereo not shown) | 10.8
Cc1cccc(S(=O)(=O)NC2CCCCCCC2)c1 | 4.36
CCOC(=O)/C(=C/c1cn(C)c2ccccc12)NC(=O)c1ccccc1 | 4.49
CC(=O)N1CCC2(CC1)C/C(=N\NC(=S)Nc1ccccc1F)c1cc(O)ccc1O2 | -3.39
Cc1ccc(/C=N\NC(=O)c2csnn2)cc1 | 9.77
CCCn1c(NC(=O)c2cccc(C)c2C)nc2ccccc21 | 8.02
O=C(COC(=O)c1cc(S(=O)(=O)N2CCCCC2)ccc1N1CCOCC1)NC1CCCCC1 | 16.6
CCOc1cc(/C=N/NC(N)=O)ccc1OCC(=O)Nc1ccc(C)c(C)c1 | 6.45
O=C(CCC(=O)Nc1ccc(Cl)cc1Cl)NNC(=O)[C@@H]1CCCC[C@@H]1C(=O)O | 19.8
CN1CCN(Cc2nc3ccccc3c(=O)[nH]2)CC1 | 3.81
Cc1ccc(S(=O)(=O)N(C)CC(=O)O/N=C(\N)c2cccnc2)cc1 | 10.3
COc1ccc(NC(=O)N2CCCC2C(=O)NCCc2ccccc2)cc1 (stereo not shown) | -15.3
c1ccc(OCc2cc(-c3ccccc3)no2)cc1 | 6.55
CN(C)C(=O)CN1C(=O)c2cccc3cccc1c23 | 20.2
COc1cccc(CNC(=O)Cn2ccc3cc(S(=O)(=O)N4CCCCCC4)ccc32)c1OC | 2.93
Oc1cccc(N2Cc3ccccc3C2)c1 | 12.6
CC(C)NS(=O)(=O)c1ccc(CCC(=O)N2CCc3ccccc3C2)cc1 | 2.08
COc1ccc([N+](=O)[O-])cc1C(=O)Nc1ccc(OCC(=O)N2CCOCC2)cc1 | -0.787
CC(=O)NC1=C(C#N)C(c2ccccc2)c2c(ccc3ccccc23)O1 (stereo not shown) | 11.1
CCCc1c(C(=O)NNc2ccc(C)cc2)cnn1-c1ccccc1 | 16.1

SMILES | hERG current change (%, negative = inhibition) at 1uM [%]
O=C(CSc1nc(N2CCOCC2)nc(N2CCOCC2)n1)Nc1ccc(Cl)cc1Cl | 0.366
COc1cc(C(c2c(C)[nH][nH]c2=O)c2c(C)[nH][nH]c2=O)ccc1OC(C)C | 22.1
O=C(NCc1n[nH]c(=S)n1-c1ccc(Cl)c(Cl)c1)c1ccc(S(=O)(=O)N2CCOCC2)cc1 | 6.59
O=c1[nH]c(=S)n(-c2ccc(Br)cc2)c(O)c1C=Nc1ccc(N2CCOCC2)cc1 | -2.16
COCCNC(=O)c1ccc2c(=O)n(CCCN3CCCC3=O)c(=S)[nH]c2c1 | 8.18
COc1ccc(/C=C2\Oc3cc(OC(=O)N4CCOCC4)ccc3C2=O)c(OC)c1 | 13.8
CCCOc1ccc(/C=N/NC(=O)C(=O)Nc2ccccn2)cc1 | 8.64
CCOC(=O)c1ccc(N2CCOCC2)c(NS(=O)(=O)c2ccc(F)cc2)c1 | 12
NS(=O)(=O)c1ccc(NC(=S)NCc2cccs2)cc1 | 10.3
COc1ccc(CCN2CCCC(CN(C)Cc3cccc(OC)c3)C2)cc1 (stereo not shown) | 3.88
CC(C)COC(=O)c1cc(=O)[nH]c2ccccc12 | -3.38
Cc1ccccc1OCCc1c(C)[nH]c(=S)[nH]c1=O | 11.5
CSC1=C(C#N)C(c2sccc2C)CC(=O)N1 (stereo not shown) | 14.3
COc1ccc(C(=O)COC(=O)CN2C(=O)NC3(CC(C)CC(C)(C)C3)C2=O)c(OC)c1 (stereo not shown) | -8.25
NC(CO)(CO)CO.Nc1ncnc2c1ncn2[C@@H]1O[C@H](COP(=O)(O)OP(=O)(O)OP(=O)(O)O)[C@@H](O)[C@H]1O.O | 8.81
O=C(CCl)c1ccc2c(c1)CCN2C(=O)C1CC1 | 6.13
Nc1ccc(S(=O)(=O)Nc2ccc(Cl)nn2)cc1 | 7.65
CCn1c(SCc2ccc(Cl)c(Cl)c2)nnc1C(C)NC(=O)c1ccc(OC)cc1 (stereo not shown) | 14.7
CCOC(=O)N1C=CC=C[C@@H]2[C@@H](N3C(=O)c4ccccc4C3=O)C(=O)N21 | 12
CC(C)C(OC(=O)c1ccc(Cl)nc1)C(=O)NC1CCCCC1 (stereo not shown) | 13.7
Cc1ccc(CNC(=O)c2ccc(CS(=O)(=O)c3ccccc3C)o2)cc1 | 21.2
CCOC(=O)c1c(/N=C/C2=C(O)CC(C)(C)CC2=O)sc2c1CCCC2 | 9.11

SMILES | hERG current change (%, negative = inhibition) at 1uM [%]
CC(C)CNS(=O)(=O)c1ccc(OCC(=O)Nc2ccc3c(c2)OCO3)c(Cl)c1 | 7.28
Cc1ccc(C(=O)N/N=C2\CCc3ccccc32)c(C)c1 | 8.99
Cc1ccc(S(=O)(=O)N(CC(O)CN2C(=O)NC(C)(C)C2=O)c2ccccc2)cc1 (stereo not shown) | -28.4
O=C(CNC(=O)c1cccc(OC(F)F)c1)OCn1nnc2ccccc2c1=O | 13.3
CCOc1ccc2nc3cc(NCc4ccc(OC)cc4)ccc3c(N)c2c1 | 7
CC(C)OCCCNC(=O)CN1C(=O)CSc2ccc(S(=O)(=O)N3CCCCC3)cc21 | 0.359
Nc1cc(-c2ccc(Cl)cc2)nn1-c1ccccc1 | 4.45
CC(OCc1ccccc1)C(NC(=O)OC(C)(C)C)C(=O)NCC1CCCO1 (stereo not shown) | 2.37
COc1ccc(-n2nc3c(N4CCC(C(=O)NCc5ccccc5)CC4)nnc(C)c3c2C)cc1 | 20.3
O=C(CSc1nnc(-c2ccccc2O)o1)Oc1ccc(OCc2ccccc2)cc1 | 18
Cc1cc(C)c(C(=O)N2CCCC(N3CCN(c4cccc(C(F)(F)F)c4)CC3)C2)o1 (stereo not shown) | 4.1
Cc1csc2ncnc(N3CCN(C(=S)Nc4ccc(F)cc4F)CC3)c12 | -2.52
N#CCCN(C(=O)COC(=O)CCc1nc2ccccc2c(=O)[nH]1)c1ccc(F)cc1 | 7.83
CC(C)Oc1ccc(/C(O)=C2/C(=O)C(=O)N(CCCn3ccnc3)C2c2cccnc2)cc1 (stereo not shown) | 10.6
CC(C)Cc1ccc(C(=O)Nc2ccc(Cc3ccncc3)cc2)o1 | 11.9
COc1ccc(OC)c(CCNC(=O)c2ccc(CS(=O)(=O)c3ccc(Br)cc3)o2)c1 | 5.55
O=C(Nc1ccccc1N1CCCCC1)C1CCN(C(=O)c2ccc(Cl)cc2)CC1 | -28.6
CC(NC(=O)c1cccc(OC2CCN(C3CCN(C)CC3)CC2)c1)c1ccccc1 (stereo not shown) | 13.6
COCC(=O)N(Cc1cc2ccc(C)cc2[nH]c1=O)c1ccccc1C | 10.9
